Binding data for 5 molecules are collected here from publication PMC12222028.

Amino acid sequences for entries named in this document (tags omitted).
UniProt O43747: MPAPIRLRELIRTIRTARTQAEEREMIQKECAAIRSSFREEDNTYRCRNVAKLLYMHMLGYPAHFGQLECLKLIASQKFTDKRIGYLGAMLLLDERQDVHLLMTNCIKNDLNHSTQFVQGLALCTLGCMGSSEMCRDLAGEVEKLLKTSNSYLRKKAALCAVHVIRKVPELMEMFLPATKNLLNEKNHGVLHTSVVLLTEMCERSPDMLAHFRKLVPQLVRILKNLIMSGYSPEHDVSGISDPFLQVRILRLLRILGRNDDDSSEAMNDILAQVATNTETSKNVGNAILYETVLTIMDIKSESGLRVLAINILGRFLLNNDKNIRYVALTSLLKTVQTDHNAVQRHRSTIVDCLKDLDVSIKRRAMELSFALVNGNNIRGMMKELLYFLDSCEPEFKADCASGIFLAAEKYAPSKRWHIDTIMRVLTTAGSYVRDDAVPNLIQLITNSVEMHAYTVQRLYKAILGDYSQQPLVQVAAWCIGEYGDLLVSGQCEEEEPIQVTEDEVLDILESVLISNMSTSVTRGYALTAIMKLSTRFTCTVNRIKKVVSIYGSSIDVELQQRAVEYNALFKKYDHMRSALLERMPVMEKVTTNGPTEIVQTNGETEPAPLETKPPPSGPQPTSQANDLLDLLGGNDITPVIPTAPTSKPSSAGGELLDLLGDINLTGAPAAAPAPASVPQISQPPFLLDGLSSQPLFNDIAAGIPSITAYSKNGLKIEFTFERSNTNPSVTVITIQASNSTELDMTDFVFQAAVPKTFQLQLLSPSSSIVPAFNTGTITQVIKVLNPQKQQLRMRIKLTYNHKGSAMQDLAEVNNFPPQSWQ

No constants are given. Whether binding was seen depends on the method and setting. For some of these results: In cells and extracts the contact can be indirect. Some entries that bind do so weakly or less than the wild type.

For test [1], the target named is T1, CLCN7 (human (endogenous in HEK293)) (UniProt P51798).
T1 sequence: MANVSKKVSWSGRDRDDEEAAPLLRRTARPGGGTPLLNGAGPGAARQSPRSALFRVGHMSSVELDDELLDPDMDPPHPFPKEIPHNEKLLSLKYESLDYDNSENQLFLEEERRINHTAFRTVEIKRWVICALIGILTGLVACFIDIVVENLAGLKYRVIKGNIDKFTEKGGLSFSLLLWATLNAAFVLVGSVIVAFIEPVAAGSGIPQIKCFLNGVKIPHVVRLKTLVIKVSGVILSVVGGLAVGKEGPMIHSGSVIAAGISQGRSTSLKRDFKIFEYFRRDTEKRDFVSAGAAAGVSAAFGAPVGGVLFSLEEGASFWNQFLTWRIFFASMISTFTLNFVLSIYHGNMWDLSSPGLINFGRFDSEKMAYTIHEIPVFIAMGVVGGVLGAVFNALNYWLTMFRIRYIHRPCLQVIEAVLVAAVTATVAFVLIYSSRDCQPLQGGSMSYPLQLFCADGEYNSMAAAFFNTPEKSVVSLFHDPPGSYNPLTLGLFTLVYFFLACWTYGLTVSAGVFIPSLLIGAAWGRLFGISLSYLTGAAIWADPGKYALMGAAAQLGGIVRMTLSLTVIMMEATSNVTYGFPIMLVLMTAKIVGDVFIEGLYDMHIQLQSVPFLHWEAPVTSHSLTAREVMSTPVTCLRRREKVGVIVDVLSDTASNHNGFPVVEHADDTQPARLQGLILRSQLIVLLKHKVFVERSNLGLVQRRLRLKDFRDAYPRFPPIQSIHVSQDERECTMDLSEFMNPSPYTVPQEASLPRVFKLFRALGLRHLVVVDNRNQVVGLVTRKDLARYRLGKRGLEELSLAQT
Nature of the test: cross-linking; XL-MS: intact early endosomes (Endo-IP, HEK293 cells expressing Flag-EEA1, eluted with 3xFlag peptide, no detergent) cross-linked with 1 mM DSSO in KPBS at room temperature for 40 min; XlinkX, 5% FDR.

Test [2] addresses AP1G1 (human (endogenous in HEK293)) (UniProt O43747). The description is as above.
The target of test [3] is T2, ATP11B (human (endogenous in HEK293)) (UniProt Q9Y2G3).
T2 sequence: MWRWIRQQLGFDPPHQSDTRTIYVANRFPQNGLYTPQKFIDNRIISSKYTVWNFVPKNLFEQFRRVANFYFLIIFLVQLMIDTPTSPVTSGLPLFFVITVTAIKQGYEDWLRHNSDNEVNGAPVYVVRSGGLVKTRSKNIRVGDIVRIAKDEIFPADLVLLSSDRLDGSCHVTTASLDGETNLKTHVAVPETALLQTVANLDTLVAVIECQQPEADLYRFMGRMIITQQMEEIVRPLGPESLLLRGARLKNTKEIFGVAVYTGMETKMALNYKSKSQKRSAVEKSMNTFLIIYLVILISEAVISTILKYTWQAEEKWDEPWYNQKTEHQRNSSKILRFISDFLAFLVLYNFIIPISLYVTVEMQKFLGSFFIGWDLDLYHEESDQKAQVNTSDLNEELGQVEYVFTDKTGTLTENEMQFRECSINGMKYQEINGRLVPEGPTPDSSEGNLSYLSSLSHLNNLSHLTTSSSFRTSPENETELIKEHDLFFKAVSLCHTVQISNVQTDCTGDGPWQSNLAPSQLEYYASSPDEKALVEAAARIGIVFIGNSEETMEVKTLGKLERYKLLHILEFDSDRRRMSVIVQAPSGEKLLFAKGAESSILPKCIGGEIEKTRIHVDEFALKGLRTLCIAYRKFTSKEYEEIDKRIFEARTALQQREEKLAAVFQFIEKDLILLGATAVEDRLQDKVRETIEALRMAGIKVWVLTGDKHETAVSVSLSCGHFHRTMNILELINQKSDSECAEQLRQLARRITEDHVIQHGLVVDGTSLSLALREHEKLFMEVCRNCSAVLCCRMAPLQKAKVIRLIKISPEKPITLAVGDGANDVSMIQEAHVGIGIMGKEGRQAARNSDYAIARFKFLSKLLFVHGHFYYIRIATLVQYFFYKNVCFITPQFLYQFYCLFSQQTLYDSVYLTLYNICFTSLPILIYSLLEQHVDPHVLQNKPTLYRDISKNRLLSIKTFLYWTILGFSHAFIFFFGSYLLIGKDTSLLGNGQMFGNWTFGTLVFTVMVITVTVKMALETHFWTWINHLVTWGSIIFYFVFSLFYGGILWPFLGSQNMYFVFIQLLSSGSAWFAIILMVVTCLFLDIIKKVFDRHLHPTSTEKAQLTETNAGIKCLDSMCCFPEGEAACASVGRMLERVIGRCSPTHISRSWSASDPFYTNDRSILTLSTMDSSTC
Described as above.

In test [4] the target is T2, ATP11B (human (endogenous in HEK293)). Nature of the test: native gel or EMSA; BN-MS: 0.5% DDM extract of purified early endosomes (HEK293) on a 4-16% NativePAGE gel, 48 slices, DIA mass spectrometry; co-fractionation profiles.
Test [5] has as its target T3, TMEM30A (human (endogenous in HEK293)) (UniProt Q9NV96).
T3 sequence: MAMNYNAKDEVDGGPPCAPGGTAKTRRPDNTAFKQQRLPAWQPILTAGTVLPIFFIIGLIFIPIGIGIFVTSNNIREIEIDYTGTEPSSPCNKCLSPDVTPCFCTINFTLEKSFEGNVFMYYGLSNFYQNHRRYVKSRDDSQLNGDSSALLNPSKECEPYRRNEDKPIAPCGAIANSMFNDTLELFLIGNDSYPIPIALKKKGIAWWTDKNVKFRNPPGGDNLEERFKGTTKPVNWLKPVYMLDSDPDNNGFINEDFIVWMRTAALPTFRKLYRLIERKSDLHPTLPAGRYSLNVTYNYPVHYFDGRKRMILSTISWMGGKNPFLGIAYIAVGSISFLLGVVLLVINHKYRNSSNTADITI
The test is described as above.

Test [6] addresses T4, STX8 (human (endogenous in HEK293)) (UniProt Q9UNK0).
T4 sequence: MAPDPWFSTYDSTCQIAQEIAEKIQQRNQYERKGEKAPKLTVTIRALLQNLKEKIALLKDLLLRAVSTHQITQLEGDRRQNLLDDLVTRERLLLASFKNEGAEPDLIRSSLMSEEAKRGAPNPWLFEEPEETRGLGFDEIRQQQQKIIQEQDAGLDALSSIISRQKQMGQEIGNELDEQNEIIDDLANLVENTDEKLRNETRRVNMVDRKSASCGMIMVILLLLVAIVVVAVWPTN
Description: cross-linking; XL-MS: intact early endosomes (Endo-IP, HEK293 cells expressing Flag-EEA1, eluted with 3xFlag peptide, no detergent) cross-linked with 1 mM DSSO in KPBS at room temperature for 40 min; XlinkX, 5% FDR.

Test [7] addresses T5, FLOT2 (human (endogenous in HEK293)) (UniProt Q14254).
T5 sequence: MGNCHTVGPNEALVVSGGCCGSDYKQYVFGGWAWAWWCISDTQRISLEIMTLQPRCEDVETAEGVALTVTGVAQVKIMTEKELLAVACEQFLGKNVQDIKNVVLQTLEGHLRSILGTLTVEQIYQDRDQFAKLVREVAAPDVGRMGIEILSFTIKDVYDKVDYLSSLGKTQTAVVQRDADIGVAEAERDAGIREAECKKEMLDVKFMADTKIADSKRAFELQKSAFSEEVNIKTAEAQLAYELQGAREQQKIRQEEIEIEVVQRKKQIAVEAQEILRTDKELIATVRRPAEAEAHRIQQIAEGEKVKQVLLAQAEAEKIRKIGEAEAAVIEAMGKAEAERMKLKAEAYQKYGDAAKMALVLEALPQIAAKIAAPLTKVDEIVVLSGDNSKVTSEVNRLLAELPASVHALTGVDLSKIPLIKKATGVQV
The test is described as above.

B1: OSTM1 (protein, UniProt Q86WC4 32-334)
chain: ALPFGSSPHRVFHDLLSEQQLLEVEDLSLSLLQGGGLGPLSLPPDLPDLDPECRELLLDFANSSAELTGCLVRSARPVRLCQTCYPLFQQVVSKMDNISRAAGNTSESQSCARSLLMADRMQIVVILSEFFNTTWQEANCANCLTNNSEELSNSTVYFLNLFNHTLTCFEHNLQGNAHSLLQTKNYSEVCKNCREAYKTLSSLYSEMQKMNELENKAEPGTHLCIDVEDAMNITRKLWSRTFNCSVPCSDTVPVIAVSVFILFLPVVFYLSSFLHSEQKKRKLILPKRLKSSTSFANIQENSN
With B1, in test [1], the binding entry is recorded as “binds”.

B2: AP1S2 (protein, UniProt P56377 1-157)
chain: MQFMLLFSRQGKLRLQKWYVPLSDKEKKKITRELVQTVLARKPKMCSFLEWRDLKIVYKRYASLYFCCAIEDQDNELITLEIIHRYVELLDKYFGSVCELDIIFNFEKAYFILDEFLLGGEVQETSKKNVLKAIEQADLLQEEAETPRSVLEEIGLT
For B2, in test [2], the binding result is given as “binds”.

B3: TMEM230 (protein, UniProt Q96A57 1-120)
chain: MMPSRTNLATGIPSSKVKYSRLSSTDDGYIDLQFKKTPPKIPYKAIALATVLFLIGAFLIIIGSLLLSGYISKGGADRAVPVLIIGILVFLPGFYHLRIAYYASKGYRGYSYDDIPDFDD
For the molecule B3, the binding entry in test [3], in test [4] and in test [5] was “binds” in each case.

B4: VPS16 (protein, UniProt Q9H269 1-839)
chain: MDCYTANWNPLGDSAFYRKYELYSMDWDLKEELRDCLVAAAPYGGPIALLRNPWRKEKAASVRPVLDIYSASGMPLASLLWKSGPVVSLGWSAEEELLCVQEDGAVLVYGLHGDFRRHFSMGNEVLQNRVLDARIFHTEFGSGVAILTGAHRFTLSANVGDLKLRRMPEVPGLQSAPSCWTVLCQDRVAHILLAVGPDLYLLDHAACSAVTPPGLAPGVSSFLQMAVSFTYRHLALFTDTGYIWMGTASLKEKLCEFNCNIRAPPKQMVWCSRPRSKERAVVVAWERRLMVVGDAPESIQFVLDEDSYLVPELDGVRIFSRSTHEFLHEVPAASEEIFKIASMAPGALLLEAQKEYEKESQKADEYLREIQELGQLTQAVQQCIEAAGHEHQPDMQKSLLRAASFGKCFLDRFPPDSFVHMCQDLRVLNAVRDYHIGIPLTYSQYKQLTIQVLLDRLVLRRLYPLAIQICEYLRLPEVQGVSRILAHWACYKVQQKDVSDEDVARAINQKLGDTPGVSYSDIAARAYGCGRTELAIKLLEYEPRSGEQVPLLLKMKRSKLALSKAIESGDTDLVFTVLLHLKNELNRGDFFMTLRNQPMALSLYRQFCKHQELETLKDLYNQDDNHQELGSFHIRASYAAEERIEGRVAALQTAADAFYKAKNEFAAKATEDQMRLLRLQRRLEDELGGQFLDLSLHDTVTTLILGGHNKRAEQLARDFRIPDKRLWWLKLTALADLEDWEELEKFSKSKKSPIGYLPFVEICMKQHNKYEAKKYASRVGPEQKVKALLLVGDVAQAADVAIEHRNEAELSLVLSHCTGATDGATADKIQRARAQAQKK
Regarding B4, in test [6], the binding entry is recorded as “binds”.

B5: FLOT1 (protein, UniProt O75955 1-427)
chain: MFFTCGPNEAMVVSGFCRSPPVMVAGGRVFVLPCIQQIQRISLNTLTLNVKSEKVYTRHGVPISVTGIAQVKIQGQNKEMLAAACQMFLGKTEAEIAHIALETLEGHQRAIMAHMTVEEIYKDRQKFSEQVFKVASSDLVNMGISVVSYTLKDIHDDQDYLHSLGKARTAQVQKDARIGEAEAKRDAGIREAKAKQEKVSAQYLSEIEMAKAQRDYELKKAAYDIEVNTRRAQADLAYQLQVAKTKQQIEEQRVQVQVVERAQQVAVQEQEIARREKELEARVRKPAEAERYKLERLAEAEKSQLIMQAEAEAASVRMRGEAEAFAIGARARAEAEQMAKKAEAFQLYQEAAQLDMLLEKLPQVAEEISGPLTSANKITLVSSGSGTMGAAKVTGEVLDILTRLPESVERLTGVSISQVNHKPLRTA
For B5, the binding result in test [7] was “binds”.
